# Article PMC4336329 (PLoS ONE, 2015)
# In all, about 310,000 compounds went through this assay and about 14,000 (4.5%) showed an effect of 50% or more. The effect is printed as a negative number. The list shows a part of the results.
# Target: human ether-à-go-go-related gene (hERG) potassium channel (human, UniProt Q12809)
# Assay: primary screen, population patch clamp on CHO cells stably expressing hERG
# 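Also: peak tail current of the secondary pulse compared with the same well before compound.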
# Sequence of human ether-à-go-go-related gene (hERG) potassium channel (Q12809 whole entry, looked up): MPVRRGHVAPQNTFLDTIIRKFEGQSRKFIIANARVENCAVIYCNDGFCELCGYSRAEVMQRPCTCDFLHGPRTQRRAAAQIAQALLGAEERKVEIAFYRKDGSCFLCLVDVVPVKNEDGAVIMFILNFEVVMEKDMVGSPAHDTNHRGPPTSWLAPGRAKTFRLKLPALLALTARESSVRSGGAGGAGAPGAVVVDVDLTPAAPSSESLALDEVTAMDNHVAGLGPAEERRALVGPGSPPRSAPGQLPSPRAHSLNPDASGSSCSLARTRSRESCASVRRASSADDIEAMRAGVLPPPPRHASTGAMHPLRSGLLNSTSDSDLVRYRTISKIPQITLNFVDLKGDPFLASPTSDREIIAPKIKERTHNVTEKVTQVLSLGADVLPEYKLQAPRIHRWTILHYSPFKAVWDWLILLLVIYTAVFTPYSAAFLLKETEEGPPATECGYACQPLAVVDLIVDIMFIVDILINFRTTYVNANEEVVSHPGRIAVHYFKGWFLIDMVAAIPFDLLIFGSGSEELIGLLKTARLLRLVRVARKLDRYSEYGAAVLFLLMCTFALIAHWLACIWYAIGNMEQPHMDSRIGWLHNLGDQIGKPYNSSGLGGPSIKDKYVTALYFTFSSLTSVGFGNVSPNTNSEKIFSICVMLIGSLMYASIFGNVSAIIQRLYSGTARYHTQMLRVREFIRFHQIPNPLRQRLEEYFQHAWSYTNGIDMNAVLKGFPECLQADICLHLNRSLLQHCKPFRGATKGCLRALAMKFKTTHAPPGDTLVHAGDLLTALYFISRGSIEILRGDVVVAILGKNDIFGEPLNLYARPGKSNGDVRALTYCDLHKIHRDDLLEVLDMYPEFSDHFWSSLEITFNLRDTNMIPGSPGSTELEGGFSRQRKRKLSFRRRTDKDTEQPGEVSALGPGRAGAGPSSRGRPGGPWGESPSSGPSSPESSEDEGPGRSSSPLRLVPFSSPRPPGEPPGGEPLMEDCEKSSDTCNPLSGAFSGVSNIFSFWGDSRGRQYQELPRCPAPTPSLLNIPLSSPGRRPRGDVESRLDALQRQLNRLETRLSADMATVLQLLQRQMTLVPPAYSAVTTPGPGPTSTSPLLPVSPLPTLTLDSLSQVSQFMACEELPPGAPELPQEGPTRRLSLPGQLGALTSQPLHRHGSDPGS
row,Structure (SMILES),"hERG current change (%, negative = inhibition) at 10uM [%]"
1,C=CCn1cnc2scc(-c3ccc(C)cc3)c2c1=O,-10.4
2,COc1ccccc1NC(=O)c1ccc(-n2cncn2)nc1,-6.21
3,NS(=O)(=O)c1ccc(NC(=O)COC(=O)/C(=C/c2cccs2)c2cccs2)cc1,3.49
4,COc1cc(CN2CCN(Cc3ccco3)CC2)cc(OC)c1.O=C(O)C(=O)O,-1.79
5,O=C(NCc1ccccc1)C1CCCN(S(=O)(=O)c2cccs2)C1 (stereo not drawn),-0.56
6,CC(=O)c1cccc(S(=O)(=O)Nc2ccc(N3CCOCC3)cc2)c1,12.4
7,CC(=O)c1ccc(OCC(=O)c2cc(C)n(-c3ccc4c(c3)OCO4)c2C)cc1,6.16
8,Cc1cc(S(=O)(=O)N2CCOCC2)ccc1OCC(=O)N1CCOCC1,13.4
9,C/C(=N\Nc1cc(N2CCOCC2)ncn1)c1ccc(O)cc1,7.97
10,O=C(CN1CCOCC1)NCCc1ccccc1,16.4
11,COC(=O)C1C2C=CC3(CN(c4cccc(Cl)c4)C(=O)C13)O2 (stereo not drawn),2.49
12,Cc1nn(C)c(C)c1NC(=O)CC12CC3CC(CC(C3)C1)C2,2.75
13,CC(C)(C)NC(=O)CN(C(=O)c1snc(C(=O)NC2CCCCC2)c1N)c1ccccc1F,20.3
14,Cc1cc(C)nc(NS(=O)(=O)c2ccc(NC(=O)CSc3nc(-c4ccccc4)c(C#N)c(=O)[nH]3)cc2)n1,16.5
15,O=C1N/C(=C/c2ccco2)C(=O)N1Cc1ccccc1F,5.32
16,CC(C)c1ccc(CNc2nc3nc4c(c(=O)n3[nH]2)CCC4)cc1,3.74
17,COc1cc(C)c(CN2CCN(c3ccccc3)CC2)cc1C,-30.2
18,O=C(Nc1ccc2nc(-c3cccs3)c(-c3cccs3)nc2c1)NC1CC1,4.84
19,CC(CN1CCOCC1)OC(=O)CCc1ccccc1 (stereo not drawn),11.8
20,CC(=O)Nc1ccc(S(=O)(=O)NC(C(=O)O)C(C)C)cc1 (stereo not drawn),-1.28
21,Cc1ccc(S(=O)(=O)Nc2ccc3[nH]ccc3c2)cc1,-9.71
22,CC(OC(=O)c1cccc(O)c1)C(=O)N(C)Cc1ccccc1 (stereo not drawn),13.2

row,Structure (SMILES),"hERG current change (%, negative = inhibition) at 10uM [%]"
1,COc1ccc(Oc2cc(Cl)nc(N)n2)cc1,9.99
2,O=C(Nc1c(C(=O)N2CCOCC2)cnn1-c1ccccc1)c1ccco1,9.14
3,CN(Cc1nccn1C)C(=O)c1cc(COc2ccc3ncccc3c2)on1,10.5
4,Cc1ccccc1-n1c(SCC(=O)N(C)C2CCS(=O)(=O)C2)nc2ccccc2c1=O (stereo not drawn),11.6
5,CCCCOc1ccc(Cl)cc1CSc1nnc(C)n1N,-6
6,O=S(=O)(/N=C(/Nc1ccccn1)c1ccccc1)c1ccccc1,13.3
7,CC(C)CCNC(=O)CCCCn1c(=O)[nH]c2ccsc2c1=O,-3.35
8,CN(C)c1ccc(-c2n(C)c3ccccc3[n+]2C)cc1.[Cl-],-5.53
9,CCCCc1ccc2[nH]cc(CCN)c2c1.Cl,-9.69
10,Fc1ccc(N2CCN(Cc3cnc(Oc4ccc(Br)cc4)s3)CC2)cc1,13.1
11,COc1ccc(OC)c(NC(=O)CCN2C(=O)c3ccccc3C2=O)c1,19.5
12,Cc1cc(S(=O)(=O)N2CCC(NC(=O)C34CC5CC(CC(C5)C3)C4)CC2)ccc1-n1cnnn1,-15.2
13,O=C1NC2(CCCCCC2)Cc2ccccc21,-21.2
14,Cc1ccc(Nc2nc3ccccc3n3nnnc23)cc1,24.9
15,COc1ccc(NC(=O)c2cccc(NS(=O)(=O)c3ccccc3)c2)cc1,6.54
16,Nc1c(N2CCCC2)c2ccccc2oc1=O,2.82
17,CC(Oc1cccc(Cl)c1)C(=O)N(C)CC(=O)Nc1ccc(N2CCOCC2)cc1 (stereo not drawn),2.36
18,COC(=O)C1=C(C)N(C)C(=S)NC1c1ccc(OC)cc1OC (stereo not drawn),-13.2
19,COc1cc(Br)cc(CN2CCN(C/C=C/c3ccccc3)CC2)c1O,-32.1
20,CCN1C(=O)/C(=C\N2CCN(C)CC2)SC1=S,4.08
21,CC(C)C(=O)Nc1cccc(-c2cn3ccccc3n2)c1,-26
22,O=C(c1ccc2c(c1)[nH]c(=S)n1c3ccccc3nc21)N1CCN(c2cccc(Cl)c2)CC1,8.29

row,Structure (SMILES),"hERG current change (%, negative = inhibition) at 10uM [%]"
1,COc1ccc2oc(C(=O)OCC(=O)Nc3ccc(C(=O)N(C)C)cc3)c(C)c2c1,5.77
2,CCOc1ccc2nc(COC(=O)c3cccs3)c(C(=O)c3ccccc3)[n+]([O-])c2c1,6.46
3,Cn1ncc(Br)c1C(=O)NC1C2CC3CC(C2)CC1C3 (stereo not drawn),14.4
4,CC(=O)c1ccc(NC(=O)CN2CCN(S(=O)(=O)c3ccc4ccccc4c3)CC2)cc1,-20.8
5,CSc1ccccc1NC(=S)Nc1ccccc1C(F)(F)F,1.63
6,COc1ccc(S(=O)(=O)N(CC(=O)Nc2ccc(S(=O)(=O)N3CCOCC3)cc2)c2ccccc2)cc1,3.29
7,NC(=O)c1cc2ccccc2o/c1=N\NC(=O)c1ccco1,-14
8,Cl.OC(COC(c1ccc(Cl)cc1)c1ccc(Cl)cc1)CN1CCc2ccccc2C1 (stereo not drawn),-61.6
9,OCCNC(=S)NC1CCCCC1,-6.97
10,CC(NC(=O)c1ccc(F)cc1)c1nc2ccccc2n1Cc1ccccc1F (stereo not drawn),1.15
11,O=C(CN1C(=O)NC2(CCCCC2)C1=O)N1CCN(S(=O)(=O)c2ccccc2)CC1,13.8
12,CCOc1ccccc1C(=O)OCC(=O)Nc1nnc(-c2ccccc2)o1,-8.2
13,COc1ccccc1N(CN1CCCC1=O)C(=O)c1c(F)cccc1F,-2.49
14,COc1ccc(N2CCN(C(=O)CCCn3c(=O)[nH]c4cc(Cl)ccc4c3=O)CC2)cc1,4.16
15,O=C(O)/C=C\C(=O)Nc1ccc(N2CCN(c3ccc(F)cc3)CC2)cc1,-0.0699
16,O=C(O)C(=O)O.OC(CNCc1ccccc1)Cn1ccc2ccccc21 (stereo not drawn),-21.3
17,Cc1ccc(CN2CCC(CNC(=O)c3ccc(NC(=O)C4=CSCCO4)cc3)CC2)cc1,-49
18,O=C(N/N=C/c1cccc(Cl)c1Cl)Nc1ccccc1,-1.02
19,CC(C)Oc1ccc(S(=O)(=O)N2CCOCC2)cc1NC(=O)C(C)Oc1ccc(F)cc1 (stereo not drawn),-2.05
20,CC1(C)CC(=O)C(C=NCCN2CCN(C(=S)NC3CCCCC3)CC2)=C(O)C1,-41.1
21,COc1ccc(NC(=O)CCCn2c(=O)c3sccc3n(Cc3ccccc3C)c2=O)cc1,-45.7
22,CCCc1oc(C(=O)O)cc1CN1CCCC1.Cl,2.48

row,Structure (SMILES),"hERG current change (%, negative = inhibition) at 10uM [%]"
1,CCn1cc(CNC(=O)c2cccc([N+](=O)[O-])c2)c(C)n1,8.09
2,CCCC(=O)N1CCN(c2ccc(NC(=O)c3cccs3)cc2Cl)CC1,-66.8
3,CN(C)/C=C(\C=O)c1cccc(Cl)c1,15.4
4,Fc1ccc(-[n+]2nc(Nc3ccccc3)sc2-c2c3ccccc3cc3ccccc23)cc1.[Cl-],18.2
5,CC(NC(=O)Cc1ccc(NS(=O)(=O)c2cccc(C(F)(F)F)c2)cc1)c1ccccn1 (stereo not drawn),-7.55
6,Cn1nc(C(=O)Nc2ccccc2)c2c1-c1ccccc1S(=O)(=O)C2,-0.138
7,CCOC(=O)C(C(=O)N1CCOCC1)C1CCCCC1 (stereo not drawn),12.2
8,Cc1ccc(CN2CCN(C(=O)CCN3C(=O)c4ccccc4C3=O)CC2)cc1,-55.4
9,O=C(Nc1ccccc1)C1=C[C@H](c2coc3ccccc3c2=O)C[C@H](OCc2ccc(CO)cc2)O1,-32.4
10,O=C(CSc1nc(-c2ccc(F)cc2)cs1)N1CCN(C(=O)c2ccco2)CC1,-57
11,COc1ccccc1CNC(=O)CN(C)S(=O)(=O)c1ccc2c(c1)n(C)c(=O)c(=O)n2C,-6.4
12,N#Cc1c2n(c(=S)n(-c3ccccc3)c1=O)CCCCC2,3.42
13,Cc1ccc(CNc2ccc(N3CCOCC3)cc2)cc1,-6.93
14,Fc1ccccc1OCCSc1ncnc2nc[nH]c12,5.08
15,CCc1nnc(NC(=O)CSc2nnc(CCc3nc4ccccc4[nH]3)n2C)s1,23.1
16,CN1CCN(C(=O)CN(c2ccccc2)S(=O)(=O)N(C)C)CC1,31.2
17,CCOC(=O)N1CCC(N2C(=O)c3ccccc3C2Nc2ccc(S(=O)(=O)N3CCCCC3)cc2)CC1 (stereo not drawn),-58
18,CC(C)(C)c1ccc(-c2nc3n(c(=O)c2C#N)CCS3)cc1,-5.18
19,CN(c1cccc(NC(=O)COc2ccccc2)c1)S(C)(=O)=O,-23.3
20,COc1cccc(C2=NOC(C(=O)N3CCC4(CC3)OCCO4)C2)c1 (stereo not drawn),-15.7
21,Cc1ccc(S(=O)(=O)N2CCC(NC(=O)c3cccnc3)CC2)cc1Cl,-2.56
